Structures can show the parent of a compound that is named as a salt. The list shows a part of the results. Many values rest on one well or one pass, so single values are uncertain.
What was measured:
OVCAR4 = experiment: log2 surviving fraction (library drug vs vehicle, or drug + carboplatin vs carboplatin alone; relative to plate median); ovarian cancer lines: OVCAR4 is platinum-sensitive and Ov4Carbo platinum-resistant; higher = more cell survival; details: library drug concentration 10 µM, 7 days
Ov4Carbo = experiment: as above; details: library drug concentration 10 µM, 7 days

SMILES	log2 surviving fraction (OVCAR4; carboplatin co-treatment 0 µM)	log2 surviving fraction (OVCAR4; carboplatin co-treatment 5 µM)	log2 surviving fraction (Ov4Carbo; carboplatin co-treatment 0 µM)	log2 surviving fraction (Ov4Carbo; carboplatin co-treatment 5 µM)
C[C@]12CCC(=O)C=C1CC[C@@H]1[C@@H]2[C@@H](O)C[C@@]2(C)[C@H]1CC[C@]2(O)C(=O)CO [Hydrocortisone (Cortisol)]	-1.54	0.312	-0.188	-0.0526
COC(=O)[C@@H]1CC2=CC(=O)CC[C@]2(C)[C@@]23O[C@@H]2C[C@@]2(C)[C@@H](CC[C@@]24CCC(=O)O4)[C@H]13 [Eplerenone]	1.01	0.91	0.681	0.735
CN(C)c1ccc(O)c2c1C[C@H]1C[C@H]3[C@H](N(C)C)C(O)=C(C(N)=O)C(=O)[C@@]3(O)C(O)=C1C2=O [Minocycline HCl]	0.685	0.211	0.558	0.424
CC[C@@H](CO)NCCN[C@@H](CC)CO [Ethambutol HCl]	-0.378	-1.14	1.19	0.594
Cc1ccc(Nc2nccc(N(C)c3ccc4c(C)n(C)nc4c3)n2)cc1S(N)(=O)=O [Pazopanib]	0.221	0.307	-0.35	-0.312
O=C(O)c1cccnc1Nc1cccc(C(F)(F)F)c1 [Niflumic acid]	1.04	0.417	0.424	-0.184
CC(C)(C)C(=O)OCOP(=O)(COCCn1cnc2c(N)ncnc21)OCOC(=O)C(C)(C)C [Adefovir Dipivoxil (Preveon, Hepsera)]	-7.33	-4.64	-5.14	-4.37
O=C(O)C1=CO[C@@H](O[C@@H]2O[C@H](CO)[C@@H](O)[C@H](O)[C@H]2O)[C@@H]2C(CO)=CC[C@H]12 [Geniposidic acid]	0.956	1.01	1.51	0.7
Cc1cn([C@H]2C[C@H](N=[N+]=[N-])[C@@H](CO)O2)c(=O)[nH]c1=O [Zidovudine (Retrovir)]	-0.47	-0.315	-0.665	-1.44
N=C(N)c1ccc(N=NNc2ccc(C(=N)N)cc2)cc1 [Diminazene Aceturate]	-2.16	-1.77	-1.5	-2.07
CC1(C)[C@H](C(=O)O)N2C(=O)C[C@H]2S1(=O)=O [Sulbactam]	-0.964	-1.01	0.279	-9.86
O=C1NCC2(CCN(CCc3ccccc3)CC2)O1 [Fenspiride HCl]	0.33	0.506	0.848	-0.309
Clc1ccc2c(c1)C(N1CCNCC1)=Nc1ccccc1O2 [Amoxapine]	-0.549	-0.515	-2.36	-2.59
C[C@H](CCC(=O)O)[C@H]1CC[C@H]2[C@@H]3CC[C@@H]4C[C@H](O)CC[C@]4(C)[C@H]3CC[C@]12C [Lithocholic acid]	-0.391	-0.476	-0.294	0.749
CC(C)NCC(O)COc1ccc(CCOCC2CC2)cc1 (stereo unspecified) [Betaxolol (Betoptic)]	1.44	-0.309	0.665	-1.9
COc1cc2c(cc1Cc1cccc(Cl)c1F)c(=O)c(C(=O)O)cn2[C@H](CO)C(C)C [Elvitegravir (GS-9137)]	-1.58	0.68	0.0235	0.718
CN[C@H]1CC[C@@H](c2ccc(Cl)c(Cl)c2)c2ccccc21 [Sertraline HCl]	-9.01	-7.7	-7.95	-7.61
C[N+]1(C)[C@@H]2C[C@@H](OC(=O)C(O)(c3cccs3)c3cccs3)C[C@H]1[C@@H]1O[C@@H]12 [Tiotropium Bromide hydrate]	0.162	-0.0444	-0.236	-0.201
CCN(CC)C(=O)/C(C#N)=C/c1cc(O)c(O)c([N+](=O)[O-])c1 [Entacapone]	0.569	0.645	0.0309	1.21
COc1cnc(NS(=O)(=O)c2ccc(N)cc2)nc1 [Sulfameter (Bayrena)]	0.617	0.122	0.284	0.171
Cc1cc2nc3c(=O)[nH]c(=O)nc-3n(C[C@H](O)[C@H](O)[C@H](O)CO)c2cc1C [Riboflavin (Vitamin B2)]	1.02	0.371	-0.123	-0.0347
CC1CNc2c(cccc2S(=O)(=O)N[C@@H](CCCNC(=N)N)C(=O)N2CC[C@@H](C)C[C@@H]2C(=O)O)C1 (stereo partly specified) [Argatroban]	1	0.826	1.41	0.857
CC[N+](CC)(CC)CCOc1cccc(OCC[N+](CC)(CC)CC)c1OCC[N+](CC)(CC)CC [Gallamine triethiodide (Flaxedil)]	0.14	0.423	0.344	-0.134
CC[C@H](C)C[C@H](C)CCCCCCCCC(=O)N[C@H]1C[C@@H](O)[C@@H](NCCN)NC(=O)[C@@H]2[C@@H](O)CCN2C(=O)[C@H]([C@H](O)CCN)NC(=O)[C@H]([C@H](O)[C@@H](O)c2ccc(O)cc2)NC(=O)[C@@H]2C[C@@H](O)CN2C(=O)[C@H]([C@@H](C)O)NC1=O [Caspofungin acetate]	0.721	0.876	0.428	1.4
CC(=O)OCC(=O)[C@@]12N=C(C)O[C@@H]1C[C@H]1[C@@H]3CCC4=CC(=O)C=C[C@]4(C)[C@H]3[C@@H](O)C[C@@]12C [Deflazacort (Calcort)]	-0.363	-0.155	0.777	0.597

SMILES	log2 surviving fraction (OVCAR4; carboplatin co-treatment 0 µM)	log2 surviving fraction (OVCAR4; carboplatin co-treatment 5 µM)	log2 surviving fraction (Ov4Carbo; carboplatin co-treatment 0 µM)	log2 surviving fraction (Ov4Carbo; carboplatin co-treatment 5 µM)
Oc1c(Cl)cc(Cl)c2cccnc12 [Chloroxine]	-0.626	-3.64	0.12	-4.17
CC(C)(C)c1ccc(C(O)CCCN2CCC(C(O)(c3ccccc3)c3ccccc3)CC2)cc1 (stereo unspecified) [Terfenadine]	-8.61	-2.29	-3.28	-2.88
O=C1C(O)=C([C@H]2CC[C@H](c3ccc(Cl)cc3)CC2)C(=O)c2ccccc21 [Atovaquone (Atavaquone)]	0.176	-0.387	0.968	1.21
CC[C@H]1OC(=O)C[C@@H](O)[C@H](C)[C@@H](O[C@@H]2O[C@H](C)[C@@H](O[C@H]3C[C@@](C)(O)[C@@H](O)[C@H](C)O3)[C@H](N(C)C)[C@H]2O)[C@@H](CC=O)C[C@@H](C)C(=O)/C=C/C(C)=C/[C@@H]1CO[C@@H]1O[C@H](C)[C@@H](O)[C@@H](OC)[C@H]1OC [Tylosin tartrate]	-0.137	0.495	1.4	1.25
Nc1ccc(/N=N/c2ccccc2)c(N)n1 [Phenazopyridine HCl]	0.571	1.23	0.0651	0.126
CCn1cc(C(=O)O)c(=O)c2cnc(N3CCCC3)nc21 [Piromidic Acid]	0.149	0.176	-0.168	0.278
C=CCNC(N)=S [Allylthiourea]	0.35	0.39	0.98	1.21
CC(C(=O)O)c1ccc(-c2ccccc2)c(F)c1 (stereo unspecified) [Flurbiprofen (Ansaid)]	0.571	0.0382	0.414	-0.101
C/C=C(\C)C(=O)N[C@@H](c1ccccc1)[C@@H](O)C(=O)O[C@H]1C[C@@]2(O)[C@@H](OC(=O)c3ccccc3)[C@@H]3[C@]4(OC(C)=O)CO[C@@H]4C[C@H](O)[C@@]3(C)C(=O)[C@H](OC(C)=O)C(=C1C)C2(C)C [Cephalomannine]	-7.47	-5.48	-6.59	-5.7
O=C(OCC(O)CO)c1ccccc1Nc1ccnc2cc(Cl)ccc12 (stereo unspecified) [Glafenine HCl]	-0.379	-0.25	-0.446	-0.127
CN1CCC(OC(c2ccccc2)c2ccccc2)CC1 [Diphenylpyraline HCl]	-0.496	0.0264	-1.77	-0.367
CSc1ccc2c(c1)N(CCC1CCCCN1C)c1ccccc1S2 (stereo unspecified) [Thioridazine HCl]	-7.85	-7.33	-7.11	-6.51
COC(=O)C1=C(C)NC(C)=C(C(=O)OC2CCCN(Cc3ccccc3)C2)C1c1cccc([N+](=O)[O-])c1 (stereo unspecified) [Benidipine hydrochloride]	-1.6	-0.115	-1.4	-1.82
O=C(O)CCc1nc2ccccc2[nH]1 [Procodazole]	-0.658	-0.87	-0.535	0.64
C#C[C@]1(OC(C)=O)CC[C@H]2[C@@H]3CCC4=C[C@@H](OC(C)=O)CC[C@@H]4[C@H]3CC[C@@]21C [Ethynodiol diacetate]	-1.33	-0.892	-2.17	-2.51
CCCN(CCC)S(=O)(=O)c1ccc(C(=O)O)cc1 [Probenecid (Benemid)]	0.49	0.273	1.4	1.52
COC(=O)C1=C(C#N)NC(C)=C(C(=O)OC(C)C)C1c1cccc([N+](=O)[O-])c1 (stereo unspecified) [Nilvadipine (ARC029)]	-1.97	-1.14	-1.87	-1.48
Cc1ccccc1N1C(=O)c2cc(S(N)(=O)=O)c(Cl)cc2NC1C (stereo unspecified) [Metolazone (Zaroxolyn)]	0.542	0.124	-0.18	0.369
C[C@@H](O)[C@H]1C(=O)N2C(C(=O)O)=C(S[C@@H]3CN[C@H](C(=O)N(C)C)C3)[C@H](C)[C@H]12 [Meropenem]	1.79	2.18	0.565	-0.0569
CN(C)CCCN1c2ccccc2Sc2ccc(C(F)(F)F)cc21 [Triflupromazine HCl]	-0.576	-0.886	-3.18	-1.74
N#Cc1c(N(CC(=O)O)CC(=O)O)sc(C(=O)O)c1CC(=O)O [Strontium ranelate (Protelos)]	-0.696	-0.559	0.839	1.13
CO[C@H]1/C=C/O[C@@]2(C)Oc3c(C)c(O)c4c(O)c(c(/C=N/N5CCN(C6CCCC6)CC5)c(O)c4c3C2=O)NC(=O)/C(C)=C\C=C\[C@H](C)[C@H](O)[C@@H](C)[C@@H](O)[C@@H](C)[C@H](OC(C)=O)[C@@H]1C [Rifapentine (Priftin)]	-1.03	-1.17	-1.27	-1.14
O=S(=O)(O)NC1CCCCC1 [Cyclamic  acid]	-0.0496	0.0879	0.865	0.509
O=C(O)CSCC(=O)NC1CCSC1=O (stereo unspecified) [Erdosteine]	0.719	0.778	0.945	0.529

From the supplement of paper PMC8047034
